# “And” between values parts separate entries of the source, which are not always exact repeats. Identical values can stand only once. Counter-ions that a name gives are not always drawn. The whole screen tested about 5,800 compounds, of which about 620 (11%) showed activity.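 The calls were made as follows: active = score above a cut-off or among the top three wells of a plate; in these data no inactive exceeds 0.85.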 This is a selection; strong and weak results do not stand in their true shares.
# Test system: primary human hepatic stellate cells (donor 1)
# Assay: scaled lipid accumulation score (0 = DMSO-like, 1 = nortriptyline-like); higher = stronger HSC inactivation (lipid re-accumulation), active = hit call of the paper
# Conditions: 48 h
# [1] = library stock concentration: 3.33 mM
# [2] = library stock concentration: 10 mM
smiles,measurement,setting,value
CC(C)(C)C(=O)Nc1ccc2c(c1)C(=O)C(=O)c1ccccc1-2,scaled lipid accumulation score,[1],inactive: ≤ -0.009
same,scaled lipid accumulation score,[2],inactive: 0.155
O=C1NC(=O)c2c1c(-c1ccccc1)cc1[nH]c3ccc(O)cc3c21,scaled lipid accumulation score,[2],inactive: ≤ -0.055 and inactive: ≤ -0.001
N=C1NC(=O)/C(=C/c2ccc(O)cc2)S1 [Mirin],scaled lipid accumulation score,library stock concentration: 1 mM,inactive: ≤ 0
C[N+]1(C)CCC(OC(=O)C(O)(c2ccccc2)C2CCCC2)C1 (stereo not drawn),scaled lipid accumulation score,[2],inactive: ≤ 0
C[N+]1(C)CCC(OC(=O)C(O)(c2ccccc2)C2CCCC2)C1 (stereo not drawn) [Glycopyrrolate],scaled lipid accumulation score,,inactive: ≤ 0
same,scaled lipid accumulation score,library stock concentration: 5 mM,inactive: ≤ 0
O=C(Nc1ccc([N+](=O)[O-])cc1Cl)c1cc(Cl)ccc1O [Niclosamide],scaled lipid accumulation score,library stock concentration: 6.1 mM,active: 1.15
same,scaled lipid accumulation score,[2],active: 1.08
O=C(Nc1cccc(Cl)c1)c1ccccn1,scaled lipid accumulation score,[1],inactive: ≤ 0
same,scaled lipid accumulation score,[2],inactive: ≤ 0
C[C@@]1(C(=O)Nc2ccc(F)nc2)CCCN1c1nc(Nc2cc(C3CC3)n[nH]2)c2cccn2n1,scaled lipid accumulation score,[1],inactive: ≤ 0
same,scaled lipid accumulation score,[2],inactive: 0.177
Clc1ccc(CCC(Cn2ccnc2)Sc2c(Cl)cccc2Cl)cc1 (stereo not drawn) [Butoconazole nitrate],scaled lipid accumulation score,,inactive: 0.069
same,scaled lipid accumulation score,[1],inactive: ≤ 0
same,scaled lipid accumulation score,[2],inactive: 0.16
Clc1ccc(CCC(Cn2ccnc2)Sc2c(Cl)cccc2Cl)cc1 (stereo not drawn),scaled lipid accumulation score,[2],inactive: 0.113
N[C@H](C(=O)O)c1ccc(O)c(C(=O)O)c1 [(S)-3-Carboxy-4-hydroxyphenylglycine],scaled lipid accumulation score,[2],inactive: ≤ 0
CN(C)C(=O)Nc1cccc(-c2ccc(N(C)C)cc2)c1 [Atglistatin],scaled lipid accumulation score,[1],inactive: 0.012
same,scaled lipid accumulation score,[2],inactive: 0.076
CC1(C)CC(Nc2nccc(-c3cnn(-c4ccccc4)c3)n2)CC(C)(C)N1,scaled lipid accumulation score,[2],active: 0.799
CC1c2cccc(O)c2C(O)=C2C(=O)C3(O)C(O)=C(C(N)=O)C(=O)C(N(C)C)C3C(O)C21 (stereo not drawn) [Doxycycline hydrochloride],scaled lipid accumulation score,[2],inactive: ≤ -0.07
CCCCC/C=C\C[C@H](O)/C=C/C=C\C/C=C\CCCC(=O)O,scaled lipid accumulation score,library stock concentration: 100 uM,inactive: ≤ -0.021
N#Cc1ccc(C(c2ccc(C#N)cc2)n2cncn2)cc1 [Letrozole],scaled lipid accumulation score,,inactive: ≤ 0
same,scaled lipid accumulation score,[1],inactive: ≤ 0
same,scaled lipid accumulation score,library stock concentration: 7 mM,inactive: ≤ -0.006
same,scaled lipid accumulation score,[2],inactive: ≤ 0
N#Cc1ccc(C(c2ccc(C#N)cc2)n2cncn2)cc1,scaled lipid accumulation score,[2],inactive: ≤ 0
N=C(NCCCCCCNC(=N)NC(=N)Nc1ccc(Cl)cc1)NC(=N)Nc1ccc(Cl)cc1 [Chlorhexidine],scaled lipid accumulation score,,inactive: 0.009
same,scaled lipid accumulation score,library stock concentration: 3.5 mM,inactive: 0.006
same,scaled lipid accumulation score,[2],inactive: ≤ 0
N=C(NCCCCCCNC(=N)NC(=N)Nc1ccc(Cl)cc1)NC(=N)Nc1ccc(Cl)cc1 [Chlorhexidine HCl],scaled lipid accumulation score,[1],inactive: 0.173
same,scaled lipid accumulation score,[2],inactive: 0.327

# — the supplement of paper PMC9135407
